{
  "source": "the supplement of paper PMC5919970",
  "system": "TYKNU",
  "test": "fractional viability relative to vehicle; TYKNU is a high-grade serous ovarian cancer line; higher = less growth inhibition",
  "conditions": "72 h",
  "summary_of_the_method": "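TYKNU control cells or lentiCRISPRv2 knockout derivatives were plated at 500 cells per well in duplicate into drug-stamped 384-well plates holding a ~2100-compound library at 2 or 10 μM. Culture was in RPMI 1640 with 10% FBS at 37 °C in 5% CO2, with 72 h of drug treatment. Viability was measured by Cell Titer Glo luminescence, and the averaged duplicate treatment wells were normalised to duplicate control wells at the same plate position.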",
  "key": {"[1]": {"conditions": "2uM, genotype: DNM1L knockout (sgDNM1L #1)"}, "[2]": {"conditions": "2uM, genotype: sgCTRLA1 (non-targeting control)"}, "[3]": {"conditions": "10uM, genotype: DNM1L knockout (sgDNM1L #1)"}, "[4]": {"conditions": "10uM, genotype: sgCTRLA1 (non-targeting control)"}},
  "note": "Where a name gives a salt, the structure may show the parent alone. In all, about 2,000 compounds were measured (“fractional viability relative to vehicle”: median about 0.91, lowest 2% from about 0.045 on). The list shows a part of the results.",
  "data": [
    {"molecule": "C[C@@H](N)[C@H]1CC[C@H](C(=O)Nc2ccncc2)CC1", "values": [
      {"measurement": "fractional viability", "setting": "[1]", "result": 0.982},
      {"measurement": "fractional viability", "setting": "[2]", "result": 1.19},
      {"measurement": "fractional viability", "setting": "[3]", "result": 0.953},
      {"measurement": "fractional viability", "setting": "[4]", "result": 1.21}
    ]},
    {"molecule": "COc1ccc(-c2cc(=O)c3c(O)cc(O)cc3o2)cc1O", "note": "[Diosmetin]", "values": [
      {"measurement": "fractional viability", "setting": "[1]", "result": 1.35},
      {"measurement": "fractional viability", "setting": "[2]", "result": 1.27},
      {"measurement": "fractional viability", "setting": "[3]", "result": 0.942},
      {"measurement": "fractional viability", "setting": "[4]", "result": 1.14}
    ]},
    {"molecule": "CN1CC[C@H](c2c(O)cc(O)c3c(=O)cc(-c4ccccc4Cl)oc23)[C@H](O)C1", "note": "[Flavopiridol (Alvocidib)]", "values": [
      {"measurement": "fractional viability", "setting": "[1]", "result": 0.463},
      {"measurement": "fractional viability", "setting": "[2]", "result": 0.297},
      {"measurement": "fractional viability", "setting": "[3]", "result": 0.442},
      {"measurement": "fractional viability", "setting": "[4]", "result": 0.324}
    ]},
    {"molecule": "CN1CC[C@H](c2c(O)cc(O)c3c(=O)cc(-c4ccccc4Cl)oc23)[C@H](O)C1", "note": "[Flavopiridol HCl]", "values": [
      {"measurement": "fractional viability", "setting": "[1]", "result": 0.707},
      {"measurement": "fractional viability", "setting": "[2]", "result": 0.334},
      {"measurement": "fractional viability", "setting": "[3]", "result": 0.741},
      {"measurement": "fractional viability", "setting": "[4]", "result": 0.339}
    ]},
    {"molecule": "Nc1nc(Cl)nc2c1ncn2[C@@H]1O[C@H](CO)[C@@H](O)[C@@H]1F", "note": "[Clofarabine]", "values": [
      {"measurement": "fractional viability", "setting": "[1]", "result": 0.312},
      {"measurement": "fractional viability", "setting": "[2]", "result": 0.309},
      {"measurement": "fractional viability", "setting": "[3]", "result": 0.261},
      {"measurement": "fractional viability", "setting": "[4]", "result": 0.278}
    ]},
    {"molecule": "O=C1CN2Cc3c(ccc(Cl)c3Cl)N=C2N1", "note": "[Anagrelide HCl]", "values": [
      {"measurement": "fractional viability", "setting": "[1]", "result": 1.06},
      {"measurement": "fractional viability", "setting": "[2]", "result": 1.18},
      {"measurement": "fractional viability", "setting": "[3]", "result": 0.579},
      {"measurement": "fractional viability", "setting": "[4]", "result": 0.967}
    ]},
    {"molecule": "CN(C)Cc1c(C(=O)NCCOc2ccc(C(=O)NO)cc2)oc2ccccc12", "values": [
      {"measurement": "fractional viability", "setting": "[1]", "result": 0.184},
      {"measurement": "fractional viability", "setting": "[2]", "result": 0.244},
      {"measurement": "fractional viability", "setting": "[3]", "result": 0.0877},
      {"measurement": "fractional viability", "setting": "[4]", "result": 0.133}
    ]},
    {"molecule": "O=c1[nH]c(=O)n(C2CC(O)C(CO)O2)cc1Br", "note": "(stereo unspecified) [Bromodeoxyuridine (BrdU)]", "values": [
      {"measurement": "fractional viability", "setting": "[1]", "result": 0.823},
      {"measurement": "fractional viability", "setting": "[2]", "result": 0.962},
      {"measurement": "fractional viability", "setting": "[3]", "result": 0.859},
      {"measurement": "fractional viability", "setting": "[4]", "result": 0.64}
    ]},
    {"molecule": "CC(=O)N1c2ccc(-c3ccc(C(=O)O)cc3)cc2[C@H](Nc2ccc(Cl)cc2)C[C@@H]1C", "values": [
      {"measurement": "fractional viability", "setting": "[1]", "result": 0.281},
      {"measurement": "fractional viability", "setting": "[2]", "result": 0.395},
      {"measurement": "fractional viability", "setting": "[3]", "result": 0.237},
      {"measurement": "fractional viability", "setting": "[4]", "result": 0.208}
    ]},
    {"molecule": "CC[C@H]1OC(=O)[C@H](C)[C@@H](O[C@H]2C[C@@](C)(OC)[C@@H](O)[C@H](C)O2)[C@H](C)[C@@H](O[C@@H]2O[C@H](C)C[C@H](N(C)C)[C@H]2O)[C@](C)(O)C[C@@H](C)/C(=N\\OCOCCOC)[C@H](C)[C@@H](O)[C@]1(C)O", "note": "[Roxithromycin]", "values": [
      {"measurement": "fractional viability", "setting": "[1]", "result": 0.964},
      {"measurement": "fractional viability", "setting": "[2]", "result": 1.2},
      {"measurement": "fractional viability", "setting": "[3]", "result": 0.879},
      {"measurement": "fractional viability", "setting": "[4]", "result": 1.14}
    ]},
    {"molecule": "Nc1nc(F)nc2c1ncn2[C@@H]1O[C@H](CO)[C@@H](O)[C@@H]1O", "note": "[Fludarabine]", "values": [
      {"measurement": "fractional viability", "setting": "[1]", "result": 0.24},
      {"measurement": "fractional viability", "setting": "[2]", "result": 0.29},
      {"measurement": "fractional viability", "setting": "[3]", "result": 0.196},
      {"measurement": "fractional viability", "setting": "[4]", "result": 0.153}
    ]},
    {"molecule": "CC(C)CC(=O)Nc1n[nH]c2c1CN(C(=O)C1CCN(C)CC1)C2(C)C", "values": [
      {"measurement": "fractional viability", "setting": "[1]", "result": 0.298},
      {"measurement": "fractional viability", "setting": "[2]", "result": 0.302},
      {"measurement": "fractional viability", "setting": "[3]", "result": 0.316},
      {"measurement": "fractional viability", "setting": "[4]", "result": 0.308}
    ]},
    {"molecule": "O=C(NCCS(=O)(=O)c1ccc(C(F)(F)F)cn1)c1ccc(Cl)cc1", "values": [
      {"measurement": "fractional viability", "setting": "[1]", "result": 0.677},
      {"measurement": "fractional viability", "setting": "[2]", "result": 0.949},
      {"measurement": "fractional viability", "setting": "[3]", "result": 0.668},
      {"measurement": "fractional viability", "setting": "[4]", "result": 0.744}
    ]},
    {"molecule": "CCOC(=O)[C@H](CCc1ccccc1)N[C@H]1CCc2ccccc2N(CC(=O)O)C1=O", "note": "[Benazepril HCl]", "values": [
      {"measurement": "fractional viability", "setting": "[1]", "result": 1.1},
      {"measurement": "fractional viability", "setting": "[2]", "result": 1.2},
      {"measurement": "fractional viability", "setting": "[3]", "result": 0.902},
      {"measurement": "fractional viability", "setting": "[4]", "result": 1.14}
    ]}
  ]
}
